PubChem BioAssay AID1240 (Sanford-Burnham Center for Chemical Genomics, 2008)
The whole screen tested about 50,000 compounds, of which about 800 (1.6%) showed an effect of 50% or more. The list shows a part of the results.

Target: Bcl-2-like protein 10 (Homo sapiens) (UniProt Q9HD36)
Test: TR3 peptide-Bcl-B binding displacers, biochemical primary FP assay, phenotype converters (AID 1240);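 further: 0% = Bcl-B with tracer peptide and DMSO and 100% = tracer peptide lacking Bcl-B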
Conditions: GST-Bcl-B / FITC-TR3 peptide fluorescence polarization; stronger effect = higher value; compound at 3.75 mg/L

Chain of UniProt Q9HD36 (Q9HD36 whole entry, looked up): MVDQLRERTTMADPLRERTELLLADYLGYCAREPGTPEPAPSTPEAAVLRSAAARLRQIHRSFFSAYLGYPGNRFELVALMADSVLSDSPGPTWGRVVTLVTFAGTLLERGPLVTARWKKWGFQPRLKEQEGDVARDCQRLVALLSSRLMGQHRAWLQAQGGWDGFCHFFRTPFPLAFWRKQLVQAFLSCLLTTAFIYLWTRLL

SMILES	displacement [%]
O=C1NC(=S)N(c2ccc(Br)cc2)C(=O)/C1=C/c1ccc(-c2ccccc2C(=O)O)o1	19.2
COc1ccc(-c2nc3ccccc3c(=O)n2-c2cccnc2)cc1	-15.7
O=C1NC(=S)NC(=O)C1CCCC=C(Cl)Cl	12.7
CCCCCCOC(=O)C1CN1C(C)(C)CO (stereo not drawn)	0.5
CN1CCN(C(=O)COc2ccc(Cl)cc2Br)CC1	-7.4
CCOc1ccc(Br)cc1C=C1C(=O)NC(=S)NC1=O	4.5
O=c1c2ccccc2nc(/C=C/c2ccc3c(c2)OCO3)n1-c1cccc(O)c1	5.1
CCn1cc(C=C2C(=O)NC(=S)NC2=O)c2ccccc21	136
Cc1cccc(N2C(=O)NC(=O)/C(=C/c3ccc(-c4ccc(C(=O)O)c(Cl)c4)o3)C2=O)c1	-3.3
COc1cccc(OCC(=O)N2CCN(C)CC2)c1	1.4
CSc1ccc(CN2CCN(Cc3cc(Br)ccc3O)CC2)cc1	4
CCC1CN(C)CCC1(O)c1ccccc1 (stereo not drawn)	-6.1
COc1cccc(CN2CCN(Cc3ccccc3Br)CC2)c1	5.2
Cc1cc([N+](=O)[O-])nn1CC(=O)Nc1ccc(Cl)cc1C(=O)c1ccccc1	4.2
Cc1ccc(C=C2C(=O)N(C)C(=O)N(C)C2=O)o1	20.7
CC(=O)c1ccc(OC(NC(=O)c2cccc(C)c2)C(Cl)(Cl)Cl)cc1 (stereo not drawn)	11.7
COc1ccc(Cl)cc1N=Cc1c(O)n(C)c(=O)n(C)c1=O	32.2
CCN1C(=O)/C(=C/c2ccoc2)C(=O)NC1=S	-2.4
O=C1NC(=S)N(c2cccc(Br)c2)C(=O)/C1=C/c1ccco1	39
CCOc1ccc(N2C(=O)/C(=C/c3ccc(C)o3)C(=O)NC2=S)cc1	-8.7
CC12CCC(O)CC1CCC1C2CCC2(C)C1CCC2(C)O (stereo not drawn)	5.1
CCOc1ccccc1CN(CCc1ccc2c(c1)OCO2)Cc1ccc(F)c(F)c1	-15.5
COC1CCCCC1NCCc1ccc(Cl)cc1Cl (stereo not drawn)	13.2

SMILES	displacement [%]
CCOC(=O)c1ccc2c(c1)n(Cc1ccccc1)c(C)[n+]2CC	-14.9
COc1cc(OC)cc(C(=O)Nc2ccc([N+](=O)[O-])cc2C(=O)c2ccccc2)c1	-0.5
O=C(COc1ccc2ccccc2c1)N1CCN(CCCc2ccccc2)CC1	12.9
O=C(CN1CCOCC1)Nc1ccc(Br)cc1C(=O)c1ccccc1Cl	-4
CCC(CC)N1CCN(Cc2ccc(OC)c(OC)c2OC)CC1	-12
O=C1NC(=O)N(c2ccc(Cl)cc2)C(=O)/C1=C/c1ccc(Br)o1	18.9
COc1ccc(NC2=NCC(C)S2)cc1 (stereo not drawn)	-18.5
CC1=[N+]([O-])C(C(=O)c2ccccc2)N(O)C1(C)C (stereo not drawn)	10.9
CC1(C)C(C(=O)Nc2ccc(Br)cc2)C1(C)C	-2.9
O=C(Cn1c[n+]([N-][N+](=O)[O-])cn1)Nc1ccc([N+](=O)[O-])cc1	16.4
O=C(ON1CC1(C(F)(F)F)C(F)(F)F)c1ccccc1 (stereo not drawn)	3.2
CCCCCCC(C)CCCC1C(=O)NC(=O)NC1=O (stereo not drawn)	5
O=[N+]([O-])c1ccc(CNCCc2ccc(F)cc2)cc1	12.4
Cc1ccc(-n2c(C)nc3ccccc3c2=O)cc1Cl	-11
Nc1ccc(Br)cc1C(=O)c1ccccc1F	14.7
CC(C)N1CCN(c2nc3ncnc(N)c3[nH]2)CC1	6.8
O=C(CN1CCCCC1)NCC(=O)Nc1ccc(Br)cc1C(=O)c1ccccc1	-17.4
Cc1ccccc1-n1c(CN2C(=O)c3ccccc3C2=O)nc2ccccc2c1=O	-9.6
CCN(CC)CC(=O)Nc1ccc(Cl)cc1C(=O)c1ccccc1	19.7
COc1ccccc1-n1c(/C=C\c2ccccc2[N+](=O)[O-])nc2ccccc2c1=O	-1.5
CCOc1cc(C)cc2oc(=O)c3c(c12)CCC3	-1.5
O=C1/C(=C/c2ccccn2)N2CCC1CC2	16.6
COc1cccc(-n2c(Cc3ccccc3)nc3ccccc3c2=O)c1	7.6

SMILES	displacement [%]
Cc1ccccc1-n1c(/C=C/c2ccco2)nc2ccccc2c1=O	-50.3
CC(C)(C)c1ccc(OCCOc2cccc(C=C3C(=O)NC(=S)NC3=O)c2)cc1	-2.5
O=P(Oc1ccccc1)(Oc1ccccc1)OC1CCS(=O)(=O)C1 (stereo not drawn)	1.6
Cc1ccccc1-n1c(/C=C/c2ccc(Cl)cc2)nc2ccccc2c1=O	-10.4
C=CCN1C(=O)NC(=O)/C(=C/c2ccc(-c3ccc(C(=O)OCC)cc3)o2)C1=O	36.5
CN1C(=O)NC(=O)/C(=C/c2ccc(-c3ccc([N+](=O)[O-])cc3Br)o2)C1=O	-9.1
Nc1ccc(Oc2ccc(N)cc2)cc1	-4.7
Cc1ccc(-n2c(/C=C3/C(=O)Nc4ccccc43)nc3ccccc3c2=O)cc1	-4.8
O=C1NC(=O)C(=Cc2ccc(-c3cc([N+](=O)[O-])ccc3O)o2)C(=O)N1	109
Cc1cc(OC(C)C)c2c3c(c(=O)oc2c1)CCC3	-1.9
CCOP(=O)(OCC)C(NC(=O)c1ccc(Cl)cc1)C(Cl)(Cl)Cl (stereo not drawn)	12.4
COc1ccc(N2C(=O)NC(=O)/C(=C/c3cc4c(cc3Cl)OCO4)C2=O)cc1	81.5
Cc1ccc(C2c3c(c4ccccc4oc3=O)Oc3c2c(=O)oc2ccccc32)cc1	5.1
COc1ccc(-n2c(-c3cccnc3)nc3ccccc3c2=O)cc1	-10.6
COc1ccccc1CC(=O)N1CCN(C)CC1	-2.1
CCC(CC)NCc1c[nH]c2ccccc12	5.2
O=C(c1ccccc1)c1cc(Cl)ccc1NC(=O)C1COc2ccccc2O1 (stereo not drawn)	-23.8
Cc1ccc(NC(=O)c2nc[nH]c2C(=O)Nc2ccc(Br)cc2C(=O)c2ccccc2)cc1	6.6
COc1ccc(-c2nc3ccccc3c(=O)n2-c2cccc(C)n2)cc1	-3.7
Cc1ccccc1CN1CCN(C(=O)COc2ccc(Cl)cc2)CC1	10
CC(C)C12CN3CCN(CC(C3)C1O)C2 (stereo not drawn)	5.8
COc1ccc(CCNCc2cccnc2)cc1	24
COc1ccc(CCNCc2ccc(Cl)cc2)cc1	9.7

SMILES	displacement [%]
CCN1C(=O)/C(=C/c2ccc(OC)c3ccccc23)C(=O)NC1=S	9.5
CN1CCCC1C(O)(c1ccccc1)c1ccccc1 (stereo not drawn)	9
COc1ccc(CCNCc2ccccc2[N+](=O)[O-])cc1OC	2.3
CCCCn1c(=O)c(C(=O)Nc2ccc(OC)cc2)c(O)c2ccccc21	7.8
COc1ccc(C(c2c(O)c3ccccc3oc2=O)c2c(O)c3ccccc3oc2=O)cc1COc1ccccn1	18.3
O=C(COc1ccccc1)Nc1ccc(Cl)cc1C(=O)c1ccccc1	-1.6
CC12CCC(CC1=O)C(C)(C)N2 (stereo not drawn)	4.9
O=C1c2ccccc2C(=O)N1Cc1nc2ccccc2c(=O)n1-c1ccncc1	2.7
CC(C)c1cccc(C(C)C)c1OCCN1CCCCC1	7.8
CCC(=O)c1ccc(N2CCNCC2)c(F)c1	-14.1
Oc1ccc(Br)cc1CN1CCN(Cc2cccc(F)c2)CC1	4
CCOC(=O)c1c(C)n(CCOC)c2ccc(O)cc12	-3
CCOc1ccc(-n2c(-c3cccs3)nc3ccccc3c2=O)cc1	-4.2
Cc1ccc(C(=O)N2CCN(/C(N)=N/[N+](=O)[O-])CC2)cc1[N+](=O)[O-]	5.9
CC1CCC(NCCc2ccc3c(c2)OCO3)CC1 (stereo not drawn)	-8.4
Cc1ccc(-n2c(-c3ccco3)nc3ccccc3c2=O)c(C)c1	-7.6
CC(C)N1CCN(Cc2cc(Br)ccc2O)CC1	10.7
O=C1NC(=O)C(=Cc2ccc(-c3ccc([N+](=O)[O-])cc3Cl)o2)C(=O)N1	66.8
C=CCN1C(=O)/C(=C\c2cc(Cl)c(O)c(OC)c2)C(=O)NC1=S	3
CCOC(=O)c1c(C)n(Cc2ccccc2Cl)c2ccc(O)cc12	14.6
O=C1Nc2ccccc2C1=Cc1nc2ccccc2c(=O)n1-c1ccc(O)cc1	6.5
O=[N+]([O-])N=C1NCN(c2cccc([N+](=O)[O-])c2)CN1	4.2
O=[N+]([O-])c1ccc(N2CCCC2)c(F)c1Br	-0.5

SMILES	displacement [%]
COc1ccc(Br)cc1CN1CCN(C(=O)COc2ccc3ccccc3c2)CC1	11.6
CCOc1ccccc1CN(CCc1ccc2c(c1)OCO2)Cc1ccccc1OC	-9.5
O=C(Nc1ccc(Cl)cc1C(=O)c1ccccc1)c1ccc(S(=O)(=O)N2CCOCC2)cc1	-12.7
CCOc1cc(C=C2C(=O)NC(=O)NC2=O)cc(Br)c1OCCOc1ccccc1C	8.7
O=C(N/N=C1/CN2CCC1CC2)c1cc2ccccc2cc1O	-38.2
COc1cccc(C(c2c(O)c3ccccc3oc2=O)c2c(O)c3ccccc3oc2=O)c1	13.2
Cc1cccc(-n2c(CN3C(=O)c4ccccc4C3=O)nc3ccccc3c2=O)c1	1.3
COc1cc(CN2CCN(C(C)C)CC2)cc(OC)c1OC	-7.2
CC12CCC3C(CC=C4CC(O)CCC43C)C1C/C(=C\c1ccc([N+](=O)[O-])cc1)C2=O (stereo not drawn)	8.2
Cc1ccccc1NC1=NCC(C)S1 (stereo not drawn)	-0.3
Cc1cc(C)cc(N2C(=O)NC(=O)/C(=C\C=C\c3ccccc3)C2=O)c1	42.9
COc1ccccc1OCC(=O)N1CCN(C)CC1	15.9
OC1C2CCCC1C(N1CCCCC1)CC2 (stereo not drawn)	12.9
CC(C)c1ccc(N2C(=O)NC(=O)/C(=C/C=C/c3ccco3)C2=O)cc1	8.5
CC(Cc1ccccc1)NC(=O)/C=C/c1ccccc1 (stereo not drawn)	-10
O=C(Nc1cccc2ccccc12)NC1CN2CCC1CC2 (stereo not drawn)	13.2
CCc1ccc(CN2CCN(C(=O)COc3ccc(Cl)cc3)CC2)cc1	7.7
Cn1c(O)c(C(c2ccncc2)c2c(O)n(C)c(=S)n(C)c2=O)c(=O)n(C)c1=S	11.7
Cc1ccc(C(=O)Nc2ccc(N/C(N)=N/[N+](=O)[O-])cc2)cc1	8.7
Cc1cc(O)c2c3c(c(=O)oc2c1)CCCC3	13
Cc1cccc(N2C(=O)NC(=O)/C(=C/c3ccc(-c4ccc([N+](=O)[O-])cc4C)o3)C2=O)c1	76.7
